This is one part of the list. These are further read-outs of the screen, such as a control signal, another cell line or another target. No call is given for them.
experiment: compounds boosting herpes simplex virus growth – fold increase, host cell viability (AID 1956); settings: HSV replication augmentation in cells; fold increase: measured here: primary screen fold increase 10 uM, at 10 µM, stronger effect = higher value; viability: measured here: host cell viability series, at 25 µM, stronger effect = lower value; note: tested in PC3 cells

Question: Which fold increase does the source give for CCC(C)(C)C(=O)Nc1ccc(OC)cc1[N+](=O)[O-] here?
Answer: The fold increase was 1.42.

Question: What about the viability of the same compound?
Answer: The viability was 97.2%.

Question: Which results are given for CN1CC(=O)N(CC(=O)Nc2ccc(N(C)C)cc2)c2ccccc2C1=O?
Answer: fold increase: 1.44; viability: 101%

Question: For N#C/C(=C\c1ccc(N2CCOCC2)o1)C(=O)NC1CCCCC1, which fold increase is on record?
Answer: The fold increase was 2.32.

Question: What about the viability of the same compound?
Answer: Its viability is 90%.

Question: Which results are given for COCCN(Cc1cc2cc3c(cc2nc1Cl)OCO3)C(=O)Nc1ccccc1OC?
Answer: fold increase: 1.56; viability: 82.3%

Question: With COCCn1c(C)cc(C(=O)CSc2cc(C)c3ccc(OC)cc3n2)c1C as the compound, how does the fold increase read?
Answer: Its fold increase is 1.53.

Question: What about the viability of the same compound?
Answer: Its viability is 90.4%.

Question: Which fold increase does the source give for N#Cc1c(NC(=O)c2ccccc2Cl)n(Cc2ccccc2)c2nc3ccccc3nc12 here?
Answer: Its fold increase is 2.27.

Question: Which fold increase does the source give for NC(=S)Nc1cc(Cl)cc(Cl)c1 here?
Answer: Its fold increase is 1.41.

Question: What about the viability of the same compound?
Answer: The viability was 70.2%.

Question: Which results are given for NS(=O)(=O)c1ccc(Nc2ccc([N+](=O)[O-])c3nonc23)cc1?
Answer: fold increase: 1.45; viability: 91.5%

Question: For CCN1CCN(C(=S)NCc2ccc(C)cc2)CC1, which fold increase is on record?
Answer: The fold increase was 1.33.

Question: And the viability?
Answer: The viability was 98.5%.

Question: For O=C(NCCN1C(=O)C2C3C=CC(C3)C2C1=O)Nc1ccccc1 (configuration not stated), which fold increase is on record?
Answer: Its fold increase is 1.33.

Question: And the viability?
Answer: The viability was 102%.

Question: What does the source list for CC(=O)C1=C(c2ccc(Br)cc2)C(=O)c2ccccc2C1=O?
Answer: fold increase: 1.82; viability: 13.7%

Question: For Cn1c(N)c(N=O)c(=O)n(C)c1=O, which fold increase is on record?
Answer: The fold increase was 1.36.

Question: And the viability?
Answer: Its viability is 90.5%.

Question: For COC(=O)C1=NN(C(=O)c2ccc(Cl)cc2)C(O)(c2ccccc2)C1 (configuration not stated), which fold increase is on record?
Answer: The fold increase was 1.48.

Question: And the viability?
Answer: Its viability is 96.4%.

Question: For CCCCCCc1cc2cc(-c3nnc(-c4cc(OC)c(OC)c(OC)c4)o3)c(=O)oc2cc1O, which fold increase is on record?
Answer: The fold increase was 2.63.

Question: And the viability?
Answer: Its viability is 56.7%.

Question: For COc1ccc(Nc2nnc(SCC(=O)Nc3cc(C)on3)s2)cc1, which fold increase is on record?
Answer: Its fold increase is 1.12.

Question: With O=C1OCC/C1=C\c1ccc2c(c1)OCO2 as the compound, how does the fold increase read?
Answer: The fold increase was 1.35.

Question: What about the viability of the same compound?
Answer: The viability was 91.5%.

Question: Which fold increase does the source give for CCOC(=O)CC1C(=O)NCCN1c1nc2ccc(C)cn2c(=O)c1/C=C1\SC(=S)N(CC(C)C)C1=O (configuration not stated) here?
Answer: Its fold increase is 7.88.

Question: And the viability?
Answer: The viability was 63.2%.

Question: With O=C(COc1ccccc1)Nc1nc(-c2ccc(S(=O)(=O)N3CCOCC3)cc2)cs1 as the compound, how does the fold increase read?
Answer: The fold increase was 1.12.

Question: What does the source list for CCCn1c(=N)n(CC(O)c2ccco2)c2ccccc21 (configuration not stated)?
Answer: fold increase: 1.27; viability: 99.3%

Question: Which fold increase does the source give for O=C(O)c1cccc(Cn2c(Cl)c(/C=N/NC(=O)c3cc4ccccc4cc3O)sc2=O)c1 here?
Answer: The fold increase was 1.43.

Question: With CCCCCN1C=CC=C/C1=C\C=C(C#N)C#N as the compound, how does the fold increase read?
Answer: Its fold increase is 3.03.

Question: What about the viability of the same compound?
Answer: The viability was 97.2%.

Question: With O=C(c1ccc(Cl)cc1)C(Cn1cncn1)C(Sc1ccccc1)c1ccccc1 (configuration not stated) as the compound, how does the fold increase read?
Answer: Its fold increase is 1.2.

Question: With CCCN1C(=O)/C(=C/c2c(N3CCNC(=O)C3CC(=O)OC)nc3c(C)cccn3c2=O)SC1=S (configuration not stated) as the compound, how does the fold increase read?
Answer: Its fold increase is 8.68.

Question: Which fold increase does the source give for CCc1ccc(C2CC(c3cccc(Cl)c3)n3nc(N)nc3N2)cc1 (configuration not stated) here?
Answer: Its fold increase is 1.41.

Question: And the viability?
Answer: The viability was 78.8%.

Question: For COc1ccc2nc3oc(C(=O)N4CCN(c5ccccc5F)CC4)cc3cc2c1, which fold increase is on record?
Answer: Its fold increase is 1.09.

Question: With OCCN(CCO)Cc1ccc(Br)cc1 as the compound, how does the fold increase read?
Answer: Its fold increase is 1.33.

Question: And the viability?
Answer: The viability was 98.4%.

Question: For CC(=O)Nc1ccc2nc3c(=O)n(C)c(=O)n(C)c3nc2c1, which fold increase is on record?
Answer: Its fold increase is 1.42.

Question: And the viability?
Answer: Its viability is 90.7%.

Question: For CCC(=O)Nc1cccc(-c2cn3ccccc3n2)c1, which fold increase is on record?
Answer: Its fold increase is 1.32.

Question: And the viability?
Answer: Its viability is 93.6%.

Question: Which fold increase does the source give for CCOC(=O)C1=C(C)NC(=O)C1CC(=O)Nc1ccccc1 (configuration not stated) here?
Answer: Its fold increase is 2.29.

Question: And the viability?
Answer: Its viability is 92.9%.

Question: For COc1ccc2cc3cc(C(=O)Nc4ccccc4N4CCN(C)CC4)oc3nc2c1, which fold increase is on record?
Answer: Its fold increase is 1.15.

Question: For N#CC1(C#N)C(c2ccccc2)OC23CCCCC2C1(C#N)C(=N)O3 (configuration not stated), which fold increase is on record?
Answer: The fold increase was 1.39.

Question: And the viability?
Answer: The viability was 99.8%.

Question: With O=C(Cn1cccc1)N1CCN(C(c2ccccc2)c2ccccc2)CC1 as the compound, how does the fold increase read?
Answer: The fold increase was 1.4.

Question: And the viability?
Answer: The viability was 99.4%.

Question: For N#C/C(=C/c1ccc(N2CCCCC2)o1)C(=O)Nc1ccc(Cl)cc1, which fold increase is on record?
Answer: Its fold increase is 6.56.

Question: And the viability?
Answer: Its viability is 92.9%.

Question: Which fold increase does the source give for COCCN1C(=O)/C(=C/c2ccc(N3CCCC3)cc2)SC1=S here?
Answer: Its fold increase is 9.62.

Question: And the viability?
Answer: The viability was 91%.

Question: With Cc1nn(C)c(C)c1N1C(=O)c2cccc3c(N)ccc(c23)C1=O as the compound, how does the fold increase read?
Answer: The fold increase was 7.7.

Question: And the viability?
Answer: Its viability is 96.2%.

Question: What does the source list for CCN(CC)CCN1CCn2c3c(c4cc(C)ccc42)CCCC31 (configuration not stated)?
Answer: fold increase: 1.49; viability: 81.4%

Question: Which results are given for COc1ccc(C(=O)Nn2c(SCC(=O)NC3CCCC3)nc3ccccc3c2=O)cc1?
Answer: fold increase: 1.35; viability: 93%

Question: Which fold increase does the source give for CCOC(=O)C1CCN(CCC(=O)Nc2ccccc2Cl)CC1 here?
Answer: The fold increase was 1.33.

Question: What about the viability of the same compound?
Answer: The viability was 91%.

Question: Which fold increase does the source give for COCCn1cc(C(=O)N2CCC(C)CC2)c2c3ccccc3n(C)c2c1=O here?
Answer: Its fold increase is 1.37.

Question: What about the viability of the same compound?
Answer: The viability was 109%.

Question: Which results are given for CCOC(=O)c1c(NC(=O)c2nn(CC)cc2Br)sc2c1CCCCC2?
Answer: fold increase: 1.39; viability: 80.8%

Question: Which fold increase does the source give for CCN(CC)c1ccc2cc(-c3nnc(-c4ccncc4)o3)c(=O)oc2c1 here?
Answer: Its fold increase is 6.24.

Question: For O=C(Nc1nnc(COc2ccc(Cl)cc2)s1)c1cccs1, which fold increase is on record?
Answer: Its fold increase is 1.18.

Question: For Nc1nc(Br)c2c(F)cccc2c1-c1ccc(F)cc1, which fold increase is on record?
Answer: Its fold increase is 1.36.

Question: And the viability?
Answer: The viability was 101%.

Question: Which fold increase does the source give for O=C(c1cccs1)N(Cc1ccco1)C1CCS(=O)(=O)C1 (configuration not stated) here?
Answer: The fold increase was 1.36.

Question: And the viability?
Answer: Its viability is 101%.

Question: With CCN(CC)c1ccc2cc(-c3nnc(-c4ccccc4)o3)c(=O)oc2c1 as the compound, how does the fold increase read?
Answer: Its fold increase is 2.02.

Question: What about the viability of the same compound?
Answer: Its viability is 91.6%.

Question: For CCCN(CCC)c1ccc(/C=C/c2ccc3cc(OCC)ccc3n2)cc1, which fold increase is on record?
Answer: Its fold increase is 1.55.

Question: Which results are given for CCOc1ccc(C2CC(c3ccc(CC)cc3)Nc3nc(N)nn32)cc1 (configuration not stated)?
Answer: fold increase: 1.34; viability: 97.1%

Question: With CCOC(=O)c1ccc(NC(=S)Nc2ccccn2)cc1 as the compound, how does the fold increase read?
Answer: Its fold increase is 1.25.

Question: With CC(=O)CSc1nc2cc3c(cc2cc1C#N)OCCO3 as the compound, how does the fold increase read?
Answer: Its fold increase is 1.54.

Question: And the viability?
Answer: Its viability is 56%.

Question: What does the source list for CCN(CC)c1ccc2cc(C(N)=O)c(=N)oc2c1?
Answer: fold increase: 2.74; viability: 96.6%

Question: For CCCCOC(=O)CCN1C(=O)/C(=C2\SC(=S)N(CCC(=O)OCCCC)C2=O)SC1=S, which fold increase is on record?
Answer: Its fold increase is 1.49.

Question: For CCOC(=O)C1=NN(C(=O)c2ccccc2)C(O)(c2ccc(C)cc2)C1 (configuration not stated), which fold increase is on record?
Answer: Its fold increase is 1.32.

Question: For COc1ccc(N2C(=O)CC(N(CCc3ccccc3)C(=O)c3ccccc3)C2=O)cc1 (configuration not stated), which fold increase is on record?
Answer: Its fold increase is 1.37.

Question: And the viability?
Answer: Its viability is 98.9%.

Question: For N#Cc1c(C(F)(F)F)cc(-c2ccccc2)nc1SCc1nc(N)nc(N2CCOCC2)n1, which fold increase is on record?
Answer: The fold increase was 1.8.

Question: And the viability?
Answer: The viability was 83.2%.

Question: For CC(=O)/C(C#N)=C1\NC(=O)C(Cc2ccccc2C)S1 (configuration not stated), which fold increase is on record?
Answer: Its fold increase is 1.32.

Question: Which fold increase does the source give for COc1ccccc1N1C(=N)S/C(=C\c2ccc(-c3ccccc3C(=O)O)o2)C1=O here?
Answer: Its fold increase is 1.37.

Question: For CN(C)c1ccc(C2N(c3ccc(Cl)cc3)C(=O)C3CCCN32)cc1 (configuration not stated), which fold increase is on record?
Answer: Its fold increase is 1.32.

Question: What about the viability of the same compound?
Answer: The viability was 103%.

Question: Which fold increase does the source give for Cc1cc(O)c(C(C)C)cc1N=Cc1ccccc1O here?
Answer: The fold increase was 1.61.

Question: What about the viability of the same compound?
Answer: Its viability is 74.6%.

Question: Which fold increase does the source give for N#C/C(=C/c1ccc(-c2cc(C(=O)O)cc(C(=O)O)c2)o1)c1nc2ccccc2s1 here?
Answer: The fold increase was 2.08.

Question: With COC(=O)c1cccnc1N1CCN(c2ccccc2F)CC1 as the compound, how does the fold increase read?
Answer: Its fold increase is 1.37.

Question: What about the viability of the same compound?
Answer: Its viability is 96%.

Question: With COc1ccc(N=Cc2c(O)n(-c3cccc(C)n3)c(=O)c3ccccc23)c(OC)c1 as the compound, how does the fold increase read?
Answer: The fold increase was 3.65.

Question: And the viability?
Answer: The viability was 96.6%.

Question: For O=C1c2cccc3c([N+](=O)[O-])ccc(c23)C(=O)N1CC1CCCO1 (configuration not stated), which fold increase is on record?
Answer: Its fold increase is 3.52.

Question: What about the viability of the same compound?
Answer: Its viability is 69.3%.
